The record followed here is publication PMC6212790.

This is one part of the list. At the low end of the ranking the order means little.

The target in this test is T1, GST-Rok-C97-191 (UniProt O34857).
T1 sequence: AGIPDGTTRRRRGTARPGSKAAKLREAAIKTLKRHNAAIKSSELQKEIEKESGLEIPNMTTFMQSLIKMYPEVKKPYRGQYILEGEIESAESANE
The test is described as follows: protein binding microarray.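 Also: rank score from −0.5 (least bound) to 0.5 (best bound).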 To be noted: Rok is a gene silencer of Bacillus subtilis; high values mean tight binding; most listed sequences are background and not binding sites; double strand, one strand shown.
In the case of ATGCCGTG, the binding signal is -0.0933 E-score.
Next, ATCGCACC: -0.112 E-score.
As for AACAGTAC, the binding signal amounted to 0.174 E-score.
Next, GGGCGTGA: -0.236 E-score; ACCACGCC: -0.112 E-score.
With ATGTAGCC, the binding signal was determined as 0.0279 E-score.
With ATCCTTGG the figure was 0.0799 E-score; with CGGAGACC, -0.187 E-score; with CCTTGAAA, -0.102 E-score.
Take ACGTGTCA: the binding signal was -0.105 E-score.
Next, GGCTTCGA: -0.168 E-score; AGACTTCA: -0.0306 E-score; AGCTCTGC: -0.113 E-score.
Next, AGTATCGA: 0.174 E-score; AACGCTTA: -0.146 E-score; GCTTATTA: 0.139 E-score.
Turning to ACGACGCC, the binding signal was -0.0401 E-score.
With GACGGATA the figure was -0.0695 E-score; with CCAGTCAA, -0.0685 E-score.
Turning to ACTGACGG, the binding signal is -0.0188 E-score.
Next, TAGGTAAA: 0.247 E-score; ACCCCAAT: -0.302 E-score.
Take CTGATTGA: the binding signal is -0.0577 E-score.
In turn, CTACTGAA had a binding signal of 0.098 E-score.
As for CTTTCACC, the binding signal is -0.1 E-score.
Next, AATTGCCA: 0.0565 E-score.
AAGGTTGT: the binding signal was determined as 0.0839 E-score.
Sequence TAGCGTCA gave a binding signal of 0.0381 E-score.
In the case of ACCAGCAC, the binding signal was -0.0476 E-score.
Next, ACGTAGCC: -0.0588 E-score.
Take AAGTACGC: the binding signal worked out at 0.0594 E-score.
Next, TAGATTGA: 0.215 E-score.
For the sequence CTTGGACA, the binding signal was -0.00956 E-score.
Next, ACCGTAGT: 0.0984 E-score; AGGCGGTG: -0.105 E-score; ACTTGTGA: 0.0614 E-score.
In turn, AGCACATC displayed a binding signal of 0.0373 E-score.
Consider AGACTGGG, for which the binding signal was -0.148 E-score.
For GAGGCAGA, the binding signal was -0.221 E-score.
With GTCTCAAC the figure was -0.0902 E-score; with ACTGTACA, 0.24 E-score.
With TCGTGCCA the figure was -0.0952 E-score.
With GCCTCCCA the figure was -0.401 E-score; with CAATCTAA, 0.232 E-score; with GGAAAGAA, -0.0711 E-score.
As to TCGTTCCA, the binding signal was -0.124 E-score.
Next, AGCTGGCA: -0.12 E-score.
With AGGGAGTA the figure was -0.0478 E-score.
For the sequence AACATCCC, the binding signal was -0.0913 E-score.
Consider GGGCATGA, for which the binding signal is -0.238 E-score.
In the case of ATGAAAGG, the binding signal was -0.108 E-score.
Next, ACCGAATA: 0.167 E-score; ACCGACGG: -0.255 E-score; CGGGAACG: -0.099 E-score.
As for CGGGGAAA, the binding signal was -0.0446 E-score.
In the case of CACCCCGC, the binding signal is -0.176 E-score.
With CCAGAGCA the figure was -0.296 E-score; with ATTAGAAC, 0.0664 E-score.
With CTAGTGCA the figure was 0.0533 E-score; with AGTGAATA, 0.13 E-score.
Sequence CACATGGA registered a binding signal of 0.0882 E-score.
Next, AATAGAGA: 0.217 E-score; ATCCCACG: -0.061 E-score; CAATAGTA: 0.33 E-score.
In turn, CCTAAAAC displayed a binding signal of 0.0152 E-score.
Next, TGCTGCAA: -0.156 E-score.
Next, AAAGTACG: 0.192 E-score.
With ATTGTCGA the figure was 0.0851 E-score; with CTCGTTTC, -0.115 E-score.
For the sequence CGCCTTAG, the binding signal is -0.187 E-score.
Next, CAAAAGGA: -0.239 E-score.
Next, TCGGACAA: -0.0681 E-score.
With CGTGACAG the figure was -0.272 E-score; with TAATACCA, 0.269 E-score; with GGTAGGCA, -0.102 E-score.
In turn, AGCAGTAC showed a binding signal of 0.14 E-score.
Next, ACGTTAGT: 0.202 E-score.
With CTCGAGAG the figure was -0.098 E-score; with ACGTTAGG, 0.0601 E-score; with GATACAAC, 0.107 E-score.
Next, ACGATTAT: 0.0422 E-score; AAAAGCAC: -0.0851 E-score.
CGGCTAAA: the binding signal worked out at 0.000683 E-score.
As to GGCGTCCC, the binding signal was -0.269 E-score.
In turn, ACCTGATC showed a binding signal of 0.013 E-score.
Take ATGGCTCC: the binding signal was -0.0781 E-score.
Next, CCTCGGCC: -0.299 E-score; ACCTGACG: -0.133 E-score; AAGGGGAG: -0.218 E-score.
For the sequence AGATCGGC, the binding signal stood at 0.0528 E-score.
GATTAGGC: the binding signal was -0.111 E-score.
Consider TACAAAGA, for which the binding signal was 0.0887 E-score.
With CATTAGGG the figure was -0.233 E-score; with TCATGCGA, -0.0873 E-score.
With CAGACAGA the figure was -0.111 E-score; with GTTCGCAA, 0.00581 E-score; with CCGGGTAG, -0.0837 E-score.
Consider CACGCGAC, for which the binding signal is -0.0301 E-score.
With ATGTATAC the figure was 0.308 E-score; with ACTTGCCC, -0.182 E-score.
Next, TTAATCAA: -0.108 E-score; CGGAACCC: -0.139 E-score; GGCGCTCA: -0.246 E-score.
Next, GTTGGAAA: -0.0521 E-score; CCGGCCTC: -0.299 E-score.
For ATCACCAG, the binding signal stood at 0.0525 E-score.
Next, CGCCCGAA: -0.141 E-score; CGATCTCC: -0.256 E-score.
Consider CCCGCGTC, for which the binding signal was -0.225 E-score.
As for ACGGATGC, the binding signal was -0.0285 E-score.
On to AACCGGGG, for which the binding signal is -0.276 E-score.
Consider GATGCCGA, for which the binding signal was -0.0224 E-score.
With GACCTAGC the figure was -0.0362 E-score; with CTAAGCTA, 0.242 E-score; with ATGTAGTG, 0.163 E-score.
With AAGCCCCT the figure was -0.265 E-score; with ATTAGCCA, 0.00279 E-score; with CTTGCCGA, -0.183 E-score.
Turning to ATCTCCGA, the binding signal is 0.0447 E-score.
Next, AAACTTGC: 0.0608 E-score; AACAAATA: 0.24 E-score.
With GAGGTTCC, the binding signal was -0.202 E-score.
Turning to GACACAGC, the binding signal is -0.0384 E-score.
With GCCACGGC the figure was -0.25 E-score; with ACGCCACC, -0.111 E-score.
As to GATAGGCA, the binding signal is -0.0595 E-score.
Take AATCGCGA: the binding signal came to 0.122 E-score.
As to ATCCAGAT, the binding signal is -0.142 E-score.
In the case of CCAGTGAG, the binding signal is -0.165 E-score.
With TCAGGCCA the figure was -0.222 E-score.
Next, ATTGATAG: 0.348 E-score; GCCAGGAC: -0.223 E-score.
Next, GAATGTGC: -0.088 E-score.
In the case of ACAAGCTC, the binding signal was -0.0971 E-score.
In turn, CTAAGGAC registered a binding signal of 0.0801 E-score.
Next, GCTCCAGC: -0.142 E-score; TTAACCAA: 0.177 E-score; CCGAAAAC: 0.168 E-score.
Next, CTGGGGTA: 0.0634 E-score; CACGGTCG: -0.219 E-score.
With AGAGCCCT the figure was -0.204 E-score.
With GATTACAA, the binding signal was determined as 0.134 E-score.
With CTGTCTAC the figure was 0.131 E-score; with ATGTAGCG, 0.163 E-score.
Next, CACGAGTC: -0.301 E-score; TAGTTTAA: 0.345 E-score.
Next, CATTCTGC: -0.173 E-score; CTTGCTCC: -0.166 E-score.
In the case of ACTGCCCC, the binding signal is -0.297 E-score.
Sequence CTAGTAAA came in with a binding signal of 0.289 E-score.
With AGCGAGCA the figure was -0.125 E-score.
On to AACCTTCT, for which the binding signal was -0.0307 E-score.
Next, AAATATGA: 0.146 E-score; CCCACATC: -0.214 E-score.
Turning to GCGTGCTA, the binding signal worked out at 0.174 E-score.
Consider GGGACAGA, for which the binding signal was -0.0866 E-score.
With CACGAAAG the figure was -0.0455 E-score; with CCCTTTGA, -0.221 E-score.
With CCTTTCTC the figure was -0.255 E-score.
Next, CGTACGCA: -0.0365 E-score.
For GAAAGGGA, the binding signal is -0.179 E-score.
Turning to CCAAAATC, the binding signal amounted to 0.0449 E-score.
The sequence AATCTCAA displayed a binding signal of 0.0271 E-score.
With ATTTATCG the figure was 0.266 E-score.
Consider GACGCGTA, for which the binding signal is -0.0333 E-score.
For ACGGGCCA, the binding signal was 0.0456 E-score.
With AAGCACCT the figure was -0.185 E-score; with CAGGAGTC, -0.0656 E-score.
With CGCTCGCA the figure was -0.29 E-score.
On to CTCGTCCA, for which the binding signal was -0.343 E-score.
With ACTCGAAA the figure was 0.136 E-score.
GACACAAA showed a binding signal of 0.034 E-score.
